Data taken from patent US10299477B2 (priority 2015, dated 2019).

Columns and labels:
Magnaporthe grisea = type: in vivo; settings: rice blast, Magnaporthe grisea; 250 ppm spray
Phytophthora infestans = type: in vivo; settings: late blight on tomato, Phytophthora infestans; 250 ppm spray, 5-10 days after inoculation

Structure (SMILES)	Test A (control value class) (Magnaporthe grisea)	Test F (control value class) (Phytophthora infestans)
O=c1ccc(-c2c(F)cccc2Cl)c(-c2c(F)cccc2F)n1CC(F)F [Compound 406]	H (H shows more than 50% of control values)	L (L shows 50% or less of control values)
O=c1c(Cl)cc(-c2c(F)cccc2Cl)c(-c2c(F)cccc2F)n1CC(F)F [Compound 407]	H (H shows more than 50% of control values)	L (L shows 50% or less of control values)
CCn1c(-c2c(F)cccc2F)c(-c2ccc(Cl)cc2F)ccc1=O [Compound 408]	H (H shows more than 50% of control values)	L (L shows 50% or less of control values)
COc1ccc(Cl)c(-c2ccc(=O)n(CC(F)(F)F)c2-c2c(F)cccc2F)c1 [Compound 409]	H (H shows more than 50% of control values)	L (L shows 50% or less of control values)
COc1ccc(Cl)c(-c2cc(Cl)c(=O)n(CC(F)(F)F)c2-c2c(F)cccc2F)c1 [Compound 410]	H (H shows more than 50% of control values)	L (L shows 50% or less of control values)
COc1ccc(Cl)c(-c2cc(Br)c(=O)n(CC(F)(F)F)c2-c2c(F)cccc2F)c1 [Compound 411]	H (H shows more than 50% of control values)	L (L shows 50% or less of control values)
COc1ccc(Cl)c(-c2cc(Cl)c(=O)n(C(C)C)c2-c2c(F)cccc2F)c1 [Compound 413]	H (H shows more than 50% of control values)	L (L shows 50% or less of control values)
COc1ccc(Cl)c(-c2ccc(=O)n(C)c2-c2c(F)cc(F)cc2F)c1 [Compound 415]	H (H shows more than 50% of control values)	H (H shows more than 50% of control values)
COc1ccc(Cl)c(-c2cc(Cl)c(=O)n(C)c2-c2c(F)cc(F)cc2F)c1 [Compound 416]	H (H shows more than 50% of control values)	L (L shows 50% or less of control values)
CCn1c(-c2c(F)cccc2F)c(-c2ccc(Cl)cc2F)cc(Cl)c1=O [Compound 417]	H (H shows more than 50% of control values)	L (L shows 50% or less of control values)
Cn1c(-c2c(F)cccc2F)c(-c2ccc(Cl)cc2F)ccc1=O [Compound 418]	H (H shows more than 50% of control values)	L (L shows 50% or less of control values)
Cn1c(-c2c(F)cccc2F)c(-c2ccc(Cl)cc2F)cc(Cl)c1=O [Compound 419]	H (H shows more than 50% of control values)	L (L shows 50% or less of control values)
CCn1c(-c2c(F)cc(F)cc2F)c(-c2ccccc2Cl)ccc1=O [Compound 420]	H (H shows more than 50% of control values)	H (H shows more than 50% of control values)
CCn1c(-c2c(F)cc(F)cc2F)c(-c2ccccc2Cl)cc(Cl)c1=O [Compound 421]	H (H shows more than 50% of control values)	L (L shows 50% or less of control values)
COc1ccc(Cl)c(-c2ccc(=O)n(N)c2-c2c(F)cccc2F)c1 [Compound 422]	H (H shows more than 50% of control values)	H (H shows more than 50% of control values)
COc1ccc(Cl)c(-c2cc(Cl)c(=O)n(N)c2-c2c(F)cccc2F)c1 [Compound 423]	H (H shows more than 50% of control values)	L (L shows 50% or less of control values)
CCn1c(-c2c(F)cc(F)cc2F)c(-c2cc(F)ccc2F)ccc1=O [Compound 424]	H (H shows more than 50% of control values)	H (H shows more than 50% of control values)
CCn1c(-c2c(F)cc(F)cc2F)c(-c2cc(F)ccc2F)cc(Cl)c1=O [Compound 425]	H (H shows more than 50% of control values)	L (L shows 50% or less of control values)
Cn1c(-c2c(F)cc(F)cc2F)c(-c2cc(F)ccc2F)ccc1=O [Compound 426]	H (H shows more than 50% of control values)	L (L shows 50% or less of control values)
Cn1c(-c2c(F)cc(F)cc2F)c(-c2cc(F)ccc2F)cc(Cl)c1=O [Compound 427]	H (H shows more than 50% of control values)	L (L shows 50% or less of control values)
O=c1ccc(-c2ccc(Cl)cc2F)c(-c2c(F)cccc2F)n1CC(F)F [Compound 428]	H (H shows more than 50% of control values)	L (L shows 50% or less of control values)
CCn1c(-c2c(F)cc(OC)cc2F)c(-c2ccccc2Cl)ccc1=O [Compound 430]	H (H shows more than 50% of control values)	L (L shows 50% or less of control values)

Structure (SMILES)	Test A (control value class) (Magnaporthe grisea)	Test F (control value class) (Phytophthora infestans)
Cn1c(-c2c(F)cc(F)cc2F)c(-c2ccccc2Cl)ccc1=O [Compound 431]	H (H shows more than 50% of control values)	H (H shows more than 50% of control values)
Cn1c(-c2c(F)cc(F)cc2F)c(-c2ccccc2Cl)cc(Cl)c1=O [Compound 432]	H (H shows more than 50% of control values)	H (H shows more than 50% of control values)
COc1cc(F)c(-c2c(-c3ccccc3Cl)ccc(=O)n2C)c(F)c1 [Compound 433]	H (H shows more than 50% of control values)	L (L shows 50% or less of control values)
CCn1c(-c2c(F)cc(OC)cc2F)c(-c2ccccc2Cl)cc(Cl)c1=O [Compound 434]	H (H shows more than 50% of control values)	L (L shows 50% or less of control values)
COc1cc(F)c(-c2c(-c3ccccc3Cl)cc(Cl)c(=O)n2C)c(F)c1 [Compound 435]	H (H shows more than 50% of control values)	L (L shows 50% or less of control values)
CCN1C(=O)CCC(c2cc(F)cc(F)c2F)=C1c1c(F)cccc1F [Compound 436]	L (L shows 50% or less of control values)	L (L shows 50% or less of control values)
CN1C(=O)CCC(c2cc(F)cc(F)c2F)=C1c1c(F)cccc1F [Compound 437]	L (L shows 50% or less of control values)	L (L shows 50% or less of control values)
CCn1c(-c2c(F)cccc2F)c(-c2cc(F)cc(F)c2F)ccc1=O [Compound 438]	H (H shows more than 50% of control values)	L (L shows 50% or less of control values)
Cn1c(-c2c(F)cccc2F)c(-c2cc(F)cc(F)c2F)ccc1=O [Compound 439]	H (H shows more than 50% of control values)	L (L shows 50% or less of control values)
CCn1c(-c2c(F)cccc2F)c(-c2cc(F)cc(F)c2F)cc(Cl)c1=O [Compound 440]	H (H shows more than 50% of control values)	L (L shows 50% or less of control values)
CCn1c(-c2c(F)cccc2F)c(-c2cc(F)cc(F)c2F)cc(Br)c1=O [Compound 441]	H (H shows more than 50% of control values)	L (L shows 50% or less of control values)
Cn1c(-c2c(F)cccc2F)c(-c2cc(F)cc(F)c2F)cc(Cl)c1=O [Compound 442]	H (H shows more than 50% of control values)	L (L shows 50% or less of control values)
Cn1c(-c2c(F)cccc2F)c(-c2cc(F)cc(F)c2F)cc(Br)c1=O [Compound 443]	H (H shows more than 50% of control values)	L (L shows 50% or less of control values)
CCn1c(-c2c(F)cccc2F)c(-c2cc(Cl)ccc2Cl)ccc1=O [Compound 444]	H (H shows more than 50% of control values)	L (L shows 50% or less of control values)
CCn1c(-c2c(F)cccc2F)c(-c2cc(Cl)ccc2Cl)cc(Cl)c1=O [Compound 445]	H (H shows more than 50% of control values)	L (L shows 50% or less of control values)
Cn1c(-c2c(F)cccc2F)c(-c2cc(Cl)ccc2Cl)ccc1=O [Compound 446]	H (H shows more than 50% of control values)	L (L shows 50% or less of control values)
Cn1c(-c2c(F)cccc2F)c(-c2cc(Cl)ccc2Cl)cc(Cl)c1=O [Compound 447]	H (H shows more than 50% of control values)	L (L shows 50% or less of control values)
O=c1ccc(-c2cc(Cl)ccc2Cl)c(-c2c(F)cccc2F)n1CC(F)F [Compound 448]	H (H shows more than 50% of control values)	L (L shows 50% or less of control values)
O=c1c(Cl)cc(-c2cc(Cl)ccc2Cl)c(-c2c(F)cccc2F)n1CC(F)F [Compound 449]	H (H shows more than 50% of control values)	L (L shows 50% or less of control values)
CCn1c(-c2c(F)cccc2F)c(-c2cc(Cl)cc(Cl)c2Cl)ccc1=O [Compound 450]	H (H shows more than 50% of control values)	L (L shows 50% or less of control values)
CCn1c(-c2c(F)cccc2F)c(-c2cc(Cl)cc(Cl)c2Cl)cc(Cl)c1=O [Compound 451]	H (H shows more than 50% of control values)	L (L shows 50% or less of control values)
